Among the data in PMC7819943, “Rice protein-binding microarrays: a tool to detect cis-acting elements near promoter regions in rice” are binding signal values, retold here.

The list shows a part of the results.

For this experiment, the target named is T1, OsWOX13 (Oryza sativa, UniProt Q5QMM3 1-267).
T1 sequence: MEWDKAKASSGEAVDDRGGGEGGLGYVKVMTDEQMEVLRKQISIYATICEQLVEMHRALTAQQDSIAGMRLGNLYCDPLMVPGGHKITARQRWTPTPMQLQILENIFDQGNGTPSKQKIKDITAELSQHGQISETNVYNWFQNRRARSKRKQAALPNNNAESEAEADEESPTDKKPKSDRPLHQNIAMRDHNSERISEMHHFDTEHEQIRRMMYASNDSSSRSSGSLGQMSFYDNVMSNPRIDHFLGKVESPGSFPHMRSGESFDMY
The experiment in a line: protein-binding microarray (RPBM); PBS, 2% BSA, 51.3 ng/ul salmon testes DNA, 50 uM zinc acetate, 200 nM TF, 25 C, 1 h; high values mean tight binding. Conditions: protein: recombinant; tags: N-terminal polyhistidine and DsRed monomer fusion (pET32a); label: CyDye5-dUTP incorporated in the synthesized complementary strand; 3' TTTTT single-stranded linker to array surface; dsDNA, one strand shown. The procedure, abridged:
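Using Ni–NTA, transcription factors fused N-terminally to polyhistidine and DsRed were purified after expression in E. coli BL21-CodonPlus. These were incubated at 200 nM with a blocked, double-stranded custom Agilent array for 1 h at 25 °C in a buffer containing 50 µM zinc acetate, and the array was washed. The binding signal is per-feature fluorescence intensity (arbitrary units) on an Axon 4000B scanner.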
With “CCCATTTTAATTAGTCTCTTCCTAGTGAAAAGTAGATTGTCGGAGTCACCTAGTGCAG”, the binding signal is 8570 fluorescence intensity (a.u.).

“AAGCAATTAAGCAAATCGAGACGTCTCGAGGAGGCCAAGCCGGAGTCACCTAGTGCAG”: the binding signal is 4770 fluorescence intensity (a.u.).

“TTTTGACAACAACAGATTGCTAGGGTTCTGGTTCTCTCCCCGGAGTCACCTAGTGCAG”: the binding signal is 15300 fluorescence intensity (a.u.).

Consider “CTAATGATAATTGAGGATTTGAGGTGGCCAAATGAAGTACCGGAGTCACCTAGTGCAG”, for which the binding signal was 28500 fluorescence intensity (a.u.).

Consider “GAAAATCAGTTTGTGATTTGACTAGCTAGTTGCTTCTGCCCGGAGTCACCTAGTGCAG”, for which the binding signal was 11600 fluorescence intensity (a.u.).

For “TGTGTTAAACTATATAATTTTCTCTAAAACATAATGGTACCGGAGTCACCTAGTGCAG”, the binding signal was 3720 fluorescence intensity (a.u.).

For the sequence “CACTATTAATTGTGCTTAGAGCAAGTTTAATAGTGTAGCCCGGAGTCACCTAGTGCAG”, the binding signal is 9860 fluorescence intensity (a.u.).

For “TCAGTCCCCAAACAAATTATAATTTTGCATCATATTTTACCGGAGTCACCTAGTGCAG”, the binding signal is 6390 fluorescence intensity (a.u.).

Take “ACATTGATCACCCCTTTTCATCTTCTCAGTCAACAGGTCTCGGAGTCACCTAGTGCAG”: the binding signal is 3240 fluorescence intensity (a.u.).

For “AGAGTTCTGATTGAATTTGAACAGAAGCGGTGCTTTTGGACGGAGTCACCTAGTGCAG”, the binding signal is 38800 fluorescence intensity (a.u.).

“CTTGACGAGAAGACGTTCAGGACGAGCGGCGATGGCGGCCCGGAGTCACCTAGTGCAG”: the binding signal is 7170 fluorescence intensity (a.u.).

For “TGCGGGTTGTTTTGATTGACAATTTAGTGTTGGTGTTGTTCGGAGTCACCTAGTGCAG”, the binding signal was 26700 fluorescence intensity (a.u.).

In the case of “ATGATGATTGACTTATGTGAATATATTGTCTATATATGCACGGAGTCACCTAGTGCAG”, the binding signal is 60300 fluorescence intensity (a.u.).

Take “CAAAATGCATAACTAATTTTATTTTAAGACAGAAAGAGCACGGAGTCACCTAGTGCAG”: the binding signal is 12700 fluorescence intensity (a.u.).

Turning to “CTAATTAACACAAAGATATACTTTTCCTCCTATATCCACTCGGAGTCACCTAGTGCAG”, the binding signal is 11000 fluorescence intensity (a.u.).

Consider “CATCCTAGATTGCTATATTCTGGAGGGAGTAATTAGGAGTCGGAGTCACCTAGTGCAG”, for which the binding signal is 7180 fluorescence intensity (a.u.).

Turning to “CATAGTATACTAATTATATTTAGATTATAGTGTAATAACACGGAGTCACCTAGTGCAG”, the binding signal is 7370 fluorescence intensity (a.u.).

Turning to “AAGTGATTATCTATTTCTACTTTTGGTCCAATAGTTATTGCGGAGTCACCTAGTGCAG”, the binding signal is 30400 fluorescence intensity (a.u.).

As for “ATTTGGATTGGTTTTCTACTAAATTGATGTCCTTAAAGCTCGGAGTCACCTAGTGCAG”, the binding signal was 19600 fluorescence intensity (a.u.).

Turning to “TGACTAATTAGAATCCCTCCCCGTATGAATGCAGCTCATACGGAGTCACCTAGTGCAG”, the binding signal was 22400 fluorescence intensity (a.u.).

As for “GTAATTGCTAATGGGCCTTTCGTCTTAGATGGGCCTCCAACGGAGTCACCTAGTGCAG”, the binding signal is 4760 fluorescence intensity (a.u.).

Turning to “GGAGTGCCAATCAAAACCCAGATGTACCCATCAACAGCCACGGAGTCACCTAGTGCAG”, the binding signal was 11400 fluorescence intensity (a.u.).

Consider “TCTACTGATTTATATTCTTGTCTTATCACATTATCACCATCGGAGTCACCTAGTGCAG”, for which the binding signal is 23600 fluorescence intensity (a.u.).

On to “AGCAATTGAGATAATCAAAACATTTTAGTTTGTTAGAGAGCGGAGTCACCTAGTGCAG”, for which the binding signal is 12200 fluorescence intensity (a.u.).

As for “ATTTCTGTGATTACTCAGTGGTTGCCATGGCGTCTGTCTGCGGAGTCACCTAGTGCAG”, the binding signal is 8160 fluorescence intensity (a.u.).

In the case of “ATCCAAATCAACGGTCCAACATTACTTGCCAGTTAGCCACCGGAGTCACCTAGTGCAG”, the binding signal was 3320 fluorescence intensity (a.u.).

Consider “TCTAATTTTGTTGTGGATGTAAATCTTGTGCCTTCTTAAACGGAGTCACCTAGTGCAG”, for which the binding signal was 5910 fluorescence intensity (a.u.).

In the case of “TTTTATAATTTATTCAAATAGTACATTATTTATAATGAGTCGGAGTCACCTAGTGCAG”, the binding signal is 13000 fluorescence intensity (a.u.).

On to “ACTCAATAATTTTCTTTTCACGAACTAAACCAGGCCTTAGCGGAGTCACCTAGTGCAG”, for which the binding signal is 6340 fluorescence intensity (a.u.).

With “AGTTGAAAATGTGGGTCAATTATCCCTCTAAATGTGGGTGCGGAGTCACCTAGTGCAG”, the binding signal is 3230 fluorescence intensity (a.u.).

As for “ATCTGATTTGATTTGATTTCGTACACCAGTAGCTTCAACCCGGAGTCACCTAGTGCAG”, the binding signal is 59800 fluorescence intensity (a.u.).

Turning to “CATAGATTTCTAATTATTGTTTGCAAGTGAAAATTTAGACCGGAGTCACCTAGTGCAG”, the binding signal was 29700 fluorescence intensity (a.u.).

In the case of “TTGTGACCCAAATTGACTATGTGATCTTGAAGAGTTGTGTCGGAGTCACCTAGTGCAG”, the binding signal is 10100 fluorescence intensity (a.u.).

Take “TCCGTGATTAATGAAATCATCGCGTTGAGCTAATCTCGCTCGGAGTCACCTAGTGCAG”: the binding signal is 23400 fluorescence intensity (a.u.).

Turning to “GAGATTGGAAATGATCGAATTGTTCCGGCAGCGTGGCAGCCGGAGTCACCTAGTGCAG”, the binding signal is 20900 fluorescence intensity (a.u.).

“ATATGTGGGGTGATTGCTGGTTGATCCGTGCCCCGGGTGTCGGAGTCACCTAGTGCAG”: the binding signal was 6620 fluorescence intensity (a.u.).

Consider “GGGCCTGTTAATTAGGCTTAACCAAGTCTGAATCTTACTTCGGAGTCACCTAGTGCAG”, for which the binding signal was 5300 fluorescence intensity (a.u.).

Turning to “TGGCTAACCTTAAATTTGTTAGTGGGATGGGGCAGATGGACGGAGTCACCTAGTGCAG”, the binding signal is 3610 fluorescence intensity (a.u.).

For “CGCATCTGTCAAACTGTCAATGTGTCATTATATTGTGTGTCGGAGTCACCTAGTGCAG”, the binding signal was 3520 fluorescence intensity (a.u.).

“AACTGATTTTGTGAGTAGAATTGTGACAAACTCAACGACACGGAGTCACCTAGTGCAG”: the binding signal was 12400 fluorescence intensity (a.u.).

Turning to “TCAAATTTGCGTTGTGACAACTTTTCTTAAGAAATACACTCGGAGTCACCTAGTGCAG”, the binding signal was 9000 fluorescence intensity (a.u.).

With “ATTAAGAGATTACTAATCTACACTTTAAAATAAACGGTCGCGGAGTCACCTAGTGCAG”, the binding signal is 4430 fluorescence intensity (a.u.).
